Test results reported in patent US12433952B2, “Antibody-drug conjugates targeting folate receptor alpha and methods of use” (ZYMEWORKS BC INC., priority 2022, dated 2025).

B1: v30384-MT-GGFG-AM-Compound 139 (conjugate)
heavy 1: EVQLLESGGGLVQPGGSLRLSCAVSGFSLSSYGVSWVRQAPGKGLEWIGAVNSGGSAYYADSVKGRSTISRDNSKNTVYLQMNSLRAEDTAVYYCARSGSGYPMDYLAIWGQGTLVTVSSASTKGPSVFPLAPSSKSTSGGTAALGCLVKDYFPEPVTVSWNSGALTSGVHTFPAVLQSSGLYSLSSVVTVPSSSLGTQTYICNVNHKPSNTKVDKKVEPKSCDKTHTCPPCPAPELLGGPSVFLFPPKPKDTLMISRTPEVTCVVVDVSHEDPEVKFNWYVDGVEVHNAKTKPREEQYNSTYRVVSVLTVLHQDWLNGKEYKCKVSNKALPAPIEKTISKAKGQPREPQVYVYPPSRDELTKNQVSLTCLVKGFYPSDIAVEWESNGQPENNYKTTPPVLDSDGSFALVSKLTVDKSRWQQGNVFSCSVMHEALHNHYTQKSLSLSPG
heavy 2: EVQLLESGGGLVQPGGSLRLSCAVSGFSLSSYGVSWVRQAPGKGLEWIGAVNSGGSAYYADSVKGRSTISRDNSKNTVYLQMNSLRAEDTAVYYCARSGSGYPMDYLAIWGQGTLVTVSSASTKGPSVFPLAPSSKSTSGGTAALGCLVKDYFPEPVTVSWNSGALTSGVHTFPAVLQSSGLYSLSSVVTVPSSSLGTQTYICNVNHKPSNTKVDKKV[human IgG1 Fc with changes not written out]
light: DYQMTQSPSSVSASVGDRVTITCRASQSIGDWLAWYQQKPGKAPKLLIYEASTLASGVPSRFSGSGSGTDFTLTISSVQPEDAATYYCQQGYGRSNVDNIFGGGTKVEVKRTVAAPSVFIFPPSDEQLKSGTASVVCLLNNFYPREAKVQWKVDNALQSGNSQESVTEQDSKDSTYSLSSTLTLSKADYEKHKVYACEVTHQGLSSPVTKSFNRGEC
B2: v30384-MT-GGFG-Compound 141 (conjugate)
heavy 1: B1 heavy 1
heavy 2: EVQLLESGGGLVQPGGSLRLSCAVSGFSLSSYGVSWVRQAPGKGLEWIGAVNSGGSAYYADSVKGRSTISRDNSKNTVYLQMNSLRAEDTAVYYCARSGSGYPMDYLAIWGQGTLVTVSSASTKGPSVFPLAPSSKSTSGGTAALGCLVKDYFPEPVTVSWNSGALTSGVHTFPAVLQSSGLYSLSSVVTVPSSSLGTQTYICNVNHKPSNTKVDKKV[human IgG1 Fc with changes not written out]
light: B1 light
B3: v30384-MT-GGFG-Compound 140 (conjugate)
heavy 1: B1 heavy 1
heavy 2: EVQLLESGGGLVQPGGSLRLSCAVSGFSLSSYGVSWVRQAPGKGLEWIGAVNSGGSAYYADSVKGRSTISRDNSKNTVYLQMNSLRAEDTAVYYCARSGSGYPMDYLAIWGQGTLVTVSSASTKGPSVFPLAPSSKSTSGGTAALGCLVKDYFPEPVTVSWNSGALTSGVHTFPAVLQSSGLYSLSSVVTVPSSSLGTQTYICNVNHKPSNTKVDKKV[human IgG1 Fc with changes not written out]
light: B1 light
B4: v30384-MC-GGFG-AM-Compound 141 (conjugate)
heavy 1: B1 heavy 1
heavy 2: EVQLLESGGGLVQPGGSLRLSCAVSGFSLSSYGVSWVRQAPGKGLEWIGAVNSGGSAYYADSVKGRSTISRDNSKNTVYLQMNSLRAEDTAVYYCARSGSGYPMDYLAIWGQGTLVTVSSASTKGPSVFPLAPSSKSTSGGTAALGCLVKDYFPEPVTVSWNSGALTSGVHTFPAVLQSSGLYSLSSVVTVPSSSLGTQTYICNVNHKPSNTKVDKKV[human IgG1 Fc with changes not written out]
light: B1 light

Legend:
[1] = test system: MDA-MB-468 (breast adenocarcinoma; FRα-negative); experiment: In vitro cytotoxicity of ADCs, 2D monolayer (CellTiter-Glo); type: cell-based; settings: 4 days, DAR 8, FRα-negative
Method: The cell growth inhibition (cytotoxicity) capabilities of the humanized variant v30384 conjugated to various drug-linkers were assessed in a panel of FRα-expressing cell lines as described below. Cell lines used were KB—HeLa (endocervical carcinoma), JEG-3 (choriocarcinoma), T-47D (breast carcinoma) and MDA-MB-468 (breast adenocarcinoma; FRα-negative).
Briefly, cells were seeded in 384-well plates and treated with a titration of test article, generated in cell growth medium. Cells were incubated for 4 days under standard culturing conditions. After incubation, CellTiter-Glo® reagent (Promega Corporation, Madison, WI) was spiked in all wells and luminescence corresponding to ATP present in each well was measured using a Synergy™ H1 plate reader (BioTek Instruments, Winooski, VT). Based on blank wells (no test article added), % cytotoxicity values were calculated and plotted against test article concentration using GraphPad Prism 9 software (GraphPad Software, San Diego, CA).

[2] = test system: EBC-1 (lung carcinoma; FRα-negative) spheroids; experiment: In vitro cytotoxicity of ADCs, 3D spheroids (CellTiter-Glo 3D); type: cell-based; settings: EBC-1 (FRα-negative) spheroids, 6-day treatment, DAR 8
Method: The 3D cytotoxicity capabilities of the humanized variant v30384 conjugated to various drug-linkers as shown in Table 27.1 were assessed in a panel of FRα-expressing cell line spheroids as described below. Spheroids provide a three-dimensional organization of cells with layers of distinct cell populations and the formation of different gradients from the outer to the inner regions. Cell signaling is more complex in spheroids than in two-dimensional cell cultures. As a result of these features, spheroids have the potential to recapitulate drug resistance and metabolic adaptation.
Cell lines used were IGROV-1 (ovarian adenocarcinoma), T-47D (breast carcinoma), OVCAR-3 (ovarian adenocarcinoma), HEC-1-A (uterine adenocarcinoma) and EBC-1 (lung carcinoma; FRα-negative).
Briefly, cells were seeded in Ultra-Low Attachment 384-well plates, centrifuged and incubated under standard culturing conditions to allow for spheroid formation and growth. Monoculture cell line spheroids were then treated with a titration of test article, generated in cell growth medium. Spheroids were incubated for 6 days under standard culturing conditions. After incubation, CellTiter-Glo® 3D reagent (Promega Corporation, Madison, WI) was spiked in all wells. Plates were incubated in the dark at room temperature for 1 hour and luminescence was quantified using a BioTek Cytation 5 Cell Imaging Multi-Mode Reader (Agilent Technologies, Inc., Santa Clara, CA). Based on blank wells (no test article added), percent cytotoxicity values were calculated and plotted against test article concentration using GraphPad Prism 9 software (GraphPad Software, San Diego, CA).

[3] = test system: OV90 xenograft; experiment: In vivo anti-tumor activity, OV90 model study #1; parameters: species or system mouse; settings: OV90 study #1, 3 mg/kg single IV dose, DAR 8
Method: (§1) The in vivo anti-tumor activities of humanized variant v30384 conjugated to various drug-linkers were assessed in a numberofxenograft models as describedbelow.
(§2) All ADCs were DAR 8. For each xenograft study, tumor volume and body weight of the animals were measured twice weekly.
(§3) For the OV90 model studies #1 and #2, tumor cell suspensions (1×10^7 cells in 0.1 ml 50% Matrigel®) were implanted subcutaneously into female CB. 17 SCID mice. When mean tumor volume reached 100-150 mm^3, the animals were randomly assigned to groups (n=6 per group for study #1, and n=8 per group for study #2) and treated on study day 1 with a single IV dose of test article as shown in Table 28.1. Serum was collected at a number of timepoints for PK analysis.

[4] = test system: NCI-H2110 CDX xenograft; experiment: In vivo anti-tumor activity, NCI-H2110 CDX model; parameters: species or system mouse; settings: 6 mg/kg single IV dose, DAR 8
Method: as §1, §2
For the NCI-H21 10 CDX model study, tumor cell suspensions (1×10^7 cells in 0.1 ml 50% Matrigel®) were implanted subcutaneously into CB. 17 SCID mice. When mean tumor volume reached ˜140 mm^3 the animals were randomly assigned to groups (n=6 per group) and treated with a single IV dose of test article on study day 0 as shown in Table 28.1.

[5] = Pharmacokinetics of ADCs in OV90 tumor-bearing mice (total IgG ELISA); type: in vivo, mouse; settings: 3 mg/kg single IV dose, total IgG in serum
Method: (§4) Serum was collected from the xenograft studies described in Example 28, as noted, and analyzed for the pharmacokinetics (PK) of the ADCs as described below.
(§5) Absorbance at 450 nm was measured using a Synergy™ H1 Hybrid Multi-Mode Plate Reader (BioTek Instruments, Winooski, VT). Pharmacokinetics parameters were calculated from non-compartmental analysis using Phoenix WinNonlin™ software (Certara, Princeton, NJ).

[6] = Pharmacokinetics of ADCs in NCI-H2110 tumor-bearing mice (total IgG ELISA); type: in vivo, mouse; settings: NCI-H2110 model, 6 mg/kg single IV dose, total IgG in serum
Method: as §4, §5

[7] = Murine tolerability study (Balb/c); type: in vivo, mouse; settings: for treatment related microscopic findings: 60 and 200 mg/kg; for treatment-related macroscopic changes: 60 or 200 mg/kg; for tolerability (body weight, mortality): single intraperitoneal doses of 60 and 200 mg/kg, Balb/c mice
Method: ADCs comprising humanized variant v30384 conjugated to various drug-linkers as shown in Table 30.1 were assessed for tolerability in mice at single doses of 60 and 200 mg/kg as described below.
Test articles were administered to mice (Balb/c, female, 6-8 weeks old, -20g) via 20 ml/kg intraperitoneal injections at 60 and 200 mg/kg. From each dose group, 3 mice were subject to planned observation for 3 weeks post-dose. An additional 3 mice were subject to planned observation for 1 week post-dose, followed by termination and examination of formalin-fixed, paraffin-embedded organs. Mice were euthanized if body weight fell by ≥20% from pre-dose levels. Serum collection was planned for all mice at 24 hr and 7 day post-dose for pharmacokinetic analysis.

[8] = test system: FRα-negative MDA-MB-468 cells co-cultured with FRα-positive JEG-3; experiment: Bystander activity of ADCs (mono-culture vs co-culture, flow cytometry); type: cell-based; settings: mono-culture viability compared with co-culture viability, 2 nM ADC, 4 days
Method: The ability of the humanized variant v30384 conjugated to various drug-linkers to exert a bystander killing effect on cancer cells was assessed according to the method described below. Bystander killing most commonly occurs after target-specific uptake of an ADC into an antigen-positive cell. Trafficking and degradation of the ADC results in release of active catabolite free drug, which then crosses the cell membrane of nearby cells to elicit cell death.
FRα-positive JEG-3 and FRα-negative MDA-MB-468 cells were seeded either as mono-cultures or co-cultures in a 48-well plate at 20,000 cells and 10,000 cells, respectively, in 100 μL assay media (Minimum Essential Media supplemented with 10% Fetal Bovine Serum (both from Thermo Fisher Scientific, Waltham, MA)). ADCs were diluted to 4 nM in assay media and 100 μL was added to the cell-containing plates (2 nM final ADC concentration). Cells were incubated with ADCs for 4 days under standard culturing conditions (37° C./5% C02). Following incubation, cells were dissociated, washed, and stained using a viability dye, YO—PRO®-1 (ThermoFisher Scientific, Waltham, MA), and an anti-FRα antibody, mirvetuximab (v17716), conjugated to Alexa Fluor®647, for 20 minutes at 4° C. After incubation, cells were washed in FACS buffer (phosphate buffered saline pH 7.4 (ThermoFisher Scientific, Waltham, MA) supplemented with 2% FBS), resuspended in 70 μL FACS buffer per well, and 35 μL per well were analyzed on a BD LSRFortessa™ Cell Analyzer (BD Biosciences, Franklin Lake, NJ). Dead cells were excluded by gating on YO—PRO®-1 staining. The number of JEG-3 and MDA-MB-468 cells were determined by the number of events in the Alexa Fluor®647 positive (FRα-positive) and Alexa Fluor®647 negative (FRα-negative) gates, respectively. Percent viability was calculated as the number of cells in treatment condition divided by the number of cells in the no-treatment condition.

[9] = test system: OV90 xenograft; experiment: In vivo anti-tumor activity, OV90 model study #2; parameters: species or system mouse; settings: OV90 study #2, 3 mg/kg single IV dose, DAR 8
Method: as §1, §2, §3

Row | Molecule | EC50 [1] [nM] | EC50 [2] [nM] | effect on tumor growth rate [3] | effect on tumor growth [4] | Half-life ([5]; OV90 #1 model) [days] | Half-life [6] [days] | treatment related microscopic findings [7] | treatment-related macroscopic changes [7] | tolerability (body weight, mortality) [7] | % Bystander Activity [8] [%] | effect on tumor growth [9] | Half-life ([5]; OV90 #2 model) [days]
1 | B1 | 36.7 | 23 | superior inhibition of tumor growth rate compared to v30384-MC-GGFG-AM-DXd | did not result in significant tumor growth rate inhibition | 8.27 | 2.39 | No treatment related microscopic findings | No treatment-related macroscopic changes | well tolerated at both 60 and 200 mg/kg | 44.6 |  | 
2 | B2 | 25.7 | 22.5 | superior inhibition of tumor growth rate compared to v30384-MC-GGFG-AM-DXd |  | 5.63 |  |  | No treatment-related macroscopic changes | well tolerated at both 60 and 200 mg/kg | 49.7 |  | 
3 | B3 | 23.3 |  |  | stasis of tumor growth for approximately 2 weeks post-dose |  | 4.80 | present in intestine, bone marrow, thymus, spleen and mesenteric lymph node | Macroscopic changes considered related to the ADCs were present in preterminal animals | rapid body weight loss, mortality or sacrifice due to moribund condition between 3-6 days post dose | 51.8 | tumor regressions | 5.88
4 | B4 | 83.2 | 12.8 |  | did not result in significant tumor growth rate inhibition |  | 1.87 |  |  |  |  | tumor regressions | 5.17
